Results on 40 compounds are retold here after paper PMC6664820, “Novel natural and synthetic inhibitors of solute carriers SGLT1 and SGLT2” (Pharmacology Research & Perspectives, 2019).

Each structure is given as a SMILES string. The campaign covered roughly 1,900 compounds. About 40 (2%) showed an effect of 50% or more. Some of the results follow.

human SGLT1 (hSGLT1), sequence (P13866 whole entry, looked up): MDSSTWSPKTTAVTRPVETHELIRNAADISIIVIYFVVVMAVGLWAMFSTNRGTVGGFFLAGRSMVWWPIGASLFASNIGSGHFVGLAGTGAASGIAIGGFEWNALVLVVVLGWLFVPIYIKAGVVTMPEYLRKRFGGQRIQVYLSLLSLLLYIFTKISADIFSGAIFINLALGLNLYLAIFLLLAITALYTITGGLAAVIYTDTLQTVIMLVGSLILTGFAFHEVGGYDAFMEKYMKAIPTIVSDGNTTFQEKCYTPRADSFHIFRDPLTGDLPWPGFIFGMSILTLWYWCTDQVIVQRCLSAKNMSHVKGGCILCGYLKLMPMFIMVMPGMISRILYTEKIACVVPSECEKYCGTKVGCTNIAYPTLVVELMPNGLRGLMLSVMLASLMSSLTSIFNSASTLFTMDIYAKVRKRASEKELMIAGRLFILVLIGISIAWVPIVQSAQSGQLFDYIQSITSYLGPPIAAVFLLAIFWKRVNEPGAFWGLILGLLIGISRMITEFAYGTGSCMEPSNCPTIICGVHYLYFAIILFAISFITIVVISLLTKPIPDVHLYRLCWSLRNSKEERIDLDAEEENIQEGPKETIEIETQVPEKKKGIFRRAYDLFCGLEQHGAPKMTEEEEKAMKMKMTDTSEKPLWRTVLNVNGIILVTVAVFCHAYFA

The assay has as its target human SGLT1 (hSGLT1) (human, UniProt P13866). The experiment in a line: primary screen, percent of control activity; higher = less effect of the substance. Also noted: single well. Particulars: 50 µM. In outline:
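Single-point screen at 50 µmol/L in CHO-hSGLT1 cells, with 160 µmol/L 1-NBD-glucose in glucose-free DMEM for 90 min at 37°C. Fluorescence from isopropanol extracts was calibrated, and CHO wild-type uptake was subtracted. Data are percent of uptake without compound.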
For `CN1CCC(OC(c2ccccc2)c2ccccc2)CC1.Cl`, the “NORMALIZED SGLT1 ACTIVITY (%)” value came to 63%.
The same measure for `O.O=C(O)[C@@H]1[C@H]2C[C@H]3c4[nH]c5ccccc5c4CCN3C[C@@H]2CC[C@@H]1O`: 96%.
Take `O=c1[nH]c2ccccc2n1C1CCN(CCCC(c2ccc(F)cc2)c2ccc(F)cc2)CC1`: the “NORMALIZED SGLT1 ACTIVITY (%)” value came out at 101%.
The same measure for `CC1(C)C2CC(=O)[C@]3(C)C(CC[C@@]4(C)[C@H](c5ccoc5)OC(=O)[C@H]5O[C@]543)[C@@]2(C)C=C[C@@H]1O` (stereo partly shown): 158%.
Regarding `CC(=O)Oc1cccc2c1C(=O)c1c(OC(C)=O)cc(C(=O)O)cc1C2=O`, the “NORMALIZED SGLT1 ACTIVITY (%)” value was found to be 124%.
In the case of `COc1ccc(-c2c(O)c3c(OC)c4c(cc3oc2=O)OC(C)(C)CC4)cc1`, the “NORMALIZED SGLT1 ACTIVITY (%)” value came out at 183%.
The same measure for `C[CH2][Hg][S]c1ccccc1C(=O)[O-].[Na+]`: 348%; for `NC(C(=O)O)C(O)C(=O)O` (stereo not shown): 98%.
For the compound `CCC(=O)NCC[C@@H]1CCc2ccc3c(c21)CCO3`, the “NORMALIZED SGLT1 ACTIVITY (%)” value is 87%.
To `Cc1cccc(N(C)C(=S)Oc2ccc3ccccc3c2)c1` belongs 122%.
Turning to `CC(C)=CCCC1(C)C=Cc2c(O)c3c(c(CC=C(C)C)c2O1)OC12C(=CCCC1C(C)(C)O[C@@]2(C/C=C(\C)C(=O)O)C(=O)O)C3=O` (stereo partly shown), the “NORMALIZED SGLT1 ACTIVITY (%)” value came out at 39%.
As for `Nc1nc(N)c2nc(-c3ccccc3)c(N)nc2n1`, the “NORMALIZED SGLT1 ACTIVITY (%)” value is 205%.
On to `COc1cc(C(C)=O)cc(OC)c1O`, for which the “NORMALIZED SGLT1 ACTIVITY (%)” value turned out to be 144%.
As for `CC(CCC(=O)O)[C@H]1CCC2C3CC[C@@H]4C[C@H](O)CC[C@]4(C)C3CC[C@@]21C` (stereo partly shown), the “NORMALIZED SGLT1 ACTIVITY (%)” value stood at 361%.
For the compound `COC(=O)C1=CO[C@@H](O[C@@H]2O[C@H](CO)[C@@H](O)[C@H](O)[C@H]2O)[C@@H]2[C@@H](C)[C@@H](O)C[C@H]12`, the “NORMALIZED SGLT1 ACTIVITY (%)” value was 94%.
For `COC(=O)CC[C@@H](C)[C@H]1CC[C@H]2[C@@H]3CC[C@@H]4C[C@H](O)CC[C@]4(C)[C@H]3C[C@H](O)[C@]12C`, the “NORMALIZED SGLT1 ACTIVITY (%)” value is on record as 231%.
The same measure for `CCCCCCNC(=O)n1cc(F)c(=O)[nH]c1=O`: 86%.
Turning to `CN1CCCN=C1COC(=O)C(O)(c1ccccc1)C1CCCCC1.Cl` (stereo not shown), the “NORMALIZED SGLT1 ACTIVITY (%)” value is recorded as 43%.
To `Cl.OC(CCN1CCCCC1)(c1ccccc1)C1CCCCC1` (stereo not shown) belongs 69%; to `Oc1cc(O)c2c(c1)O[C@H](c1cc(O)c(O)c(O)c1)[C@H](O)[C@H]2c1c(O)cc(O)c2c1O[C@H](c1cc(O)c(O)c(O)c1)[C@H](O)[C@H]2c1c(O)cc(O)c2c1O[C@H](c1cc(O)c(O)c(O)c1)[C@H](O)C2`, 120%.
Take `CCCCOc1ccc(OCCCN2CCOCC2)cc1.Cl`: the “NORMALIZED SGLT1 ACTIVITY (%)” value is listed as 98%.
As to `CC(C)C(C)/C=C/C(C)C1CCC2C3=CC=C4CC(O)CCC4(C)C3CCC21C` (stereo not shown), the “NORMALIZED SGLT1 ACTIVITY (%)” value worked out at 303%.
As to `Cc1cccc(C)c1NC1=NCCCS1`, the “NORMALIZED SGLT1 ACTIVITY (%)” value came out at 68%.
Consider `CCCCCCCCCCCCC[N+](C)(C)Cc1ccccc1.[Cl-]`, for which the “NORMALIZED SGLT1 ACTIVITY (%)” value is given as 40%.
For the compound `Nc1ccc(S(=O)(=O)NC(=O)c2ccccc2)cc1`, the “NORMALIZED SGLT1 ACTIVITY (%)” value is 100%.
To `O=C(O[C@@H]1Cc2c(O)cc(O)cc2O[C@@H]1c1cc(O)c(O)c(O)c1-c1c([C@H]2Oc3cc(O)cc(O)c3C[C@H]2OC(=O)c2cc(O)c(O)c(O)c2)cc(O)c(O)c1O)c1cc(O)c(O)c(O)c1` belongs 99%.
With `CC(=O)O[C@]1(C)CC[C@@]23C[C@@H]1C(C)(C)[C@@H]2CC[C@H]3C`, the “NORMALIZED SGLT1 ACTIVITY (%)” value is 113%.
With `CCN1CCN(C(=O)N[C@@H](C(=O)N[C@@H]2C(=O)N3C(C(=O)O)=C(CSc4nnnn4C)CS[C@H]23)c2ccc(O)cc2)C(=O)C1=O`, the “NORMALIZED SGLT1 ACTIVITY (%)” value is 88%.
Consider `CO[C@@]12[C@H](COC(N)=O)C3=C(C(=O)C(C)=C(N)C3=O)N1C[C@@H]1N[C@@H]12`, for which the “NORMALIZED SGLT1 ACTIVITY (%)” value is reported as 82%.
For the compound `CC1=Nc2ccc(Cl)cc2S(=O)(=O)N1`, the “NORMALIZED SGLT1 ACTIVITY (%)” value was 208%.
The same measure for `C=C[C@H]1CN2CC[C@H]1C[C@@H]2[C@H](O)c1ccnc2ccccc12`: 81%.
The same measure for `O=C([O-])c1cc2cc(Cc3cccnc3)ccc2o1.[Na+]`: 96%.
The same measure for `Cc1onc(-c2c(Cl)cccc2Cl)c1C(=O)N[C@@H]1C(=O)N2[C@@H]1SC(C)(C)[C@@H]2C(=O)[O-].[Na+]`: 92%; for `CCN(CCCCOC(=O)c1ccc(OC)c(OC)c1)C(C)Cc1ccc(OC)cc1.Cl` (stereo not shown): 76%; for `Cc1nnc(NS(=O)(=O)c2ccc(N)cc2)s1`: 116%.
For the compound `CC(=O)OCC(=O)[C@@]1(O)CCC2C3CCC4=CC(=O)CC[C@]4(C)C3C(=O)C[C@@]21C` (stereo partly shown), the “NORMALIZED SGLT1 ACTIVITY (%)” value is recorded as 128%.
`COc1ccc(-c2coc3cc(O)ccc3c2=O)c(OC)c1O`: the “NORMALIZED SGLT1 ACTIVITY (%)” value is given as 132%.
To `Cc1oncc1C(=O)Nc1ccc(C(F)(F)F)cc1` belongs 253%; to `CCCc1occc(=O)c1/C=C/O`, 172%; to `COc1cc2nc(N3CCN(C(=O)c4ccco4)CC3)nc(N)c2cc1OC.Cl`, 131%.
